# According to the supplement of paper PMC8728848:
# The other results are listed elsewhere or left out.
# B1: F17dG (Escherichia coli), Q47199 (protein)
# chain: MTNFYKVFLAVFILVCCNISQAAVSFIGSTENDVGPSPGSYSRTHAMDNLPFVYNTGNNIGYQNANVWRISKGFCVGLDGKVDLPVVGSLDGQSIYGLTEEVGLLIWMGDTNYSRGTAMSGNSWENVFSGWCVGANTASTQGLSVRVTPVILKRNSSARYSVQKTSIGSIRMRPYNGSSAGSVQTTVNFSLNPFTLNDTVTSCRLLTPSAVNVSLAAISAGQLPSSGDEVVAGTTSLKLQCDAGVTVWATLTDATTPSNRSDILTLTGASTATGVGLRIYKNTDSTPLKFGPDSPVKGNENQWQLSTGTETSPSVRLYVKYVNTGEGINPGTVNGISTFTFSYQ
# Columns and labels:
# Test in all cases: glycan array binding signal (z-score within array); higher = stronger binding
# Conditions in all cases: glycan notation: IUPAC condensed, linker removed
# [1] = biological target: Gal4S6S(b1-4)GlcNAc
# Summary of the method: (§1)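 From the Consortium for Functional Glycomics database, 3228 arrays were curated, keeping only those whose protein sequence was available. Binding is given as a within-array Z-score averaged across arrays sharing a protein sequence and across linkers. Negative Z-scores can be read as non-binding.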
# [2] = biological target: Gal6S(b1-4)Glc
# Summary of the method: as §1
# [3] = biological target: Gal6S(b1-4)Glc6S
# Summary of the method: as §1
# [4] = biological target: Gal6S(b1-4)GlcNAc
# Summary of the method: as §1
# [5] = biological target: GalNAc(a1-3)Gal
# Summary of the method: as §1
# [6] = biological target: GalNAc(a1-3)GalNAc
# Summary of the method: as §1
# [7] = biological target: GalNAc(b1-3)Gal(a1-4)Gal(b1-4)GlcNAc
# Summary of the method: as §1
# [8] = biological target: GalNAc(b1-3)GalNAc
# Summary of the method: as §1
# [9] = biological target: GalNAc(b1-4)GlcNAc
# Summary of the method: as §1
# [10] = biological target: Glc(a1-4)Glc
# Summary of the method: as §1
# [11] = biological target: Glc(a1-6)Glc(a1-6)Glc
# Summary of the method: as §1
# [12] = biological target: Glc(b1-4)Glc
# Summary of the method: as §1
# [13] = biological target: Glc(b1-6)Glc
# Summary of the method: as §1
# [14] = biological target: GlcA(b1-3)Gal
# Summary of the method: as §1
# [15] = biological target: GlcA(b1-6)Gal
# Summary of the method: as §1
# [16] = biological target: GlcNAc(a1-3)Gal(b1-4)GlcNAc
# Summary of the method: as §1
# [17] = biological target: GlcNAc(a1-6)Gal(b1-4)GlcNAc
# Summary of the method: as §1
# [18] = biological target: GlcNAc(b1-2)Gal(b1-3)GalNAc
# Summary of the method: as §1
# [19] = biological target: GlcNAc(b1-2)Man(a1-3)[GlcNAc(b1-2)Man(a1-6)]Man(b1-4)GlcNAc(b1-4)GlcNAc
# Summary of the method: as §1
# [20] = biological target: GlcNAc(b1-3)Gal
# Summary of the method: as §1
# [21] = biological target: GlcNAc(b1-3)Gal(b1-3)GalNAc
# Summary of the method: as §1
# [22] = biological target: GlcNAc(b1-3)Gal(b1-4)Glc
# Summary of the method: as §1
# [23] = biological target: GlcNAc(b1-3)Gal(b1-4)GlcNAc
# Summary of the method: as §1
# [24] = biological target: GlcNAc(b1-3)Gal(b1-4)GlcNAc(b1-3)Gal(b1-4)GlcNAc
# Summary of the method: as §1
# [25] = biological target: GlcNAc(b1-3)GalNAc
# Summary of the method: as §1
# [26] = biological target: GlcNAc(b1-3)[GlcNAc(b1-6)]Gal(b1-4)GlcNAc
# Summary of the method: as §1
# [27] = biological target: GlcNAc(b1-3)[GlcNAc(b1-6)]GalNAc
# Summary of the method: as §1
# [28] = biological target: GlcNAc(b1-3)[GlcNAc(b1-6)]GlcNAc(b1-4)GlcNAc
# Summary of the method: as §1
# [29] = biological target: GlcNAc(b1-4)Gal(b1-4)GlcNAc
# Summary of the method: as §1
# [30] = biological target: GlcNAc(b1-4)GlcNAc(b1-4)GlcNAc
# Summary of the method: as §1
# [31] = biological target: GlcNAc(b1-4)GlcNAc(b1-4)GlcNAc(b1-4)GlcNAc(b1-4)GlcNAc
# Summary of the method: as §1
# [32] = biological target: GlcNAc(b1-4)GlcNAc(b1-4)GlcNAc(b1-4)GlcNAc(b1-4)GlcNAc(b1-4)GlcNAc
# Summary of the method: as §1
# [33] = biological target: GlcNAc(b1-4)[GlcNAc(b1-6)]GalNAc
# Summary of the method: as §1
# [34] = biological target: GlcNAc(b1-6)Gal(b1-4)GlcNAc
# Summary of the method: as §1
# [35] = biological target: GlcNAc(b1-6)GalNAc
# Summary of the method: as §1
# [36] = biological target: Kdn(a2-3)Gal(b1-3)GlcNAc
# Summary of the method: as §1
# [37] = biological target: Kdn(a2-3)Gal(b1-4)GlcNAc
# Summary of the method: as §1
# [38] = biological target: Man(a1-2)Man(a1-2)Man(a1-3)Man
# Summary of the method: as §1
# [39] = biological target: Man(a1-2)Man(a1-2)Man(a1-6)[Man(a1-3)]Man
# Summary of the method: as §1
# [40] = biological target: Man(a1-2)Man(a1-3)Man
# Summary of the method: as §1
# [41] = biological target: Man(a1-2)Man(a1-3)[Man(a1-2)Man(a1-6)]Man
# Summary of the method: as §1
# [42] = biological target: Man(a1-2)Man(a1-3)[Man(a1-2)Man(a1-6)]Man(a1-6)[Man(a1-2)Man(a1-2)Man(a1-3)]Man(b1-4)GlcNAc(b1-4)GlcNAc
# Summary of the method: as §1
# [43] = biological target: Man(a1-2)Man(a1-3)[Man(a1-6)]Man(a1-6)[Man(a1-2)Man(a1-3)]Man(b1-4)GlcNAc(b1-4)GlcNAc
# Summary of the method: as §1
# [44] = biological target: Man(a1-2)Man(a1-6)[Man(a1-3)]Man(a1-6)[Man(a1-2)Man(a1-2)Man(a1-3)]Man(b1-4)GlcNAc(b1-4)GlcNAc
# Summary of the method: as §1
# [45] = biological target: Man(a1-3)[Man(a1-6)]Man
# Summary of the method: as §1
# [46] = biological target: Man(a1-3)[Man(a1-6)]Man(a1-6)[Man(a1-2)Man(a1-3)]Man(b1-4)GlcNAc(b1-4)GlcNAc
# Summary of the method: as §1
# [47] = biological target: Man(a1-3)[Man(a1-6)]Man(a1-6)[Man(a1-3)]Man(b1-4)GlcNAc(b1-4)GlcNAc
# Summary of the method: as §1
# [48] = biological target: Man(a1-3)[Man(a1-6)]Man(b1-4)GlcNAc(b1-4)GlcNAc
# Summary of the method: as §1
# [49] = biological target: Man(b1-4)GlcNAc
# Summary of the method: as §1
# [50] = biological target: Neu5Ac(a2-3)Gal
# Summary of the method: as §1
# [51] = biological target: Neu5Ac(a2-3)Gal(b1-3)GalNAc
# Summary of the method: as §1
# [52] = biological target: Neu5Ac(a2-3)Gal(b1-3)GalNAc(b1-3)Gal(a1-4)Gal(b1-4)Glc
# Summary of the method: as §1
binder,measurement,setting,value
B1,glycan array binding signal (z-score),[1],-0.071
same,glycan array binding signal (z-score),[2],-0.327
same,glycan array binding signal (z-score),[3],-0.217
same,glycan array binding signal (z-score),[4],-0.255
same,glycan array binding signal (z-score),[5],-0.339
same,glycan array binding signal (z-score),[6],-0.237
same,glycan array binding signal (z-score),[7],-0.353
same,glycan array binding signal (z-score),[8],3.1
same,glycan array binding signal (z-score),[9],-0.336
same,glycan array binding signal (z-score),[10],-0.331
same,glycan array binding signal (z-score),[11],-0.359
same,glycan array binding signal (z-score),[12],-0.357
same,glycan array binding signal (z-score),[13],-0.098
same,glycan array binding signal (z-score),[14],-0.38
same,glycan array binding signal (z-score),[15],-0.373
same,glycan array binding signal (z-score),[16],-0.301
same,glycan array binding signal (z-score),[17],-0.344
same,glycan array binding signal (z-score),[18],-0.373
same,glycan array binding signal (z-score),[19],-0.377
same,glycan array binding signal (z-score),[20],4.56
same,glycan array binding signal (z-score),[21],0.692
same,glycan array binding signal (z-score),[22],5.88
same,glycan array binding signal (z-score),[23],2.48
same,glycan array binding signal (z-score),[24],1.12
same,glycan array binding signal (z-score),[25],2.46
same,glycan array binding signal (z-score),[26],5.46
same,glycan array binding signal (z-score),[27],6.17
same,glycan array binding signal (z-score),[28],1.74
same,glycan array binding signal (z-score),[29],0.345
same,glycan array binding signal (z-score),[30],-0.059
same,glycan array binding signal (z-score),[31],-0.294
same,glycan array binding signal (z-score),[32],-0.291
same,glycan array binding signal (z-score),[33],-0.009
same,glycan array binding signal (z-score),[34],1.05
same,glycan array binding signal (z-score),[35],0.427
same,glycan array binding signal (z-score),[36],-0.39
same,glycan array binding signal (z-score),[37],-0.349
same,glycan array binding signal (z-score),[38],0.157
same,glycan array binding signal (z-score),[39],-0.359
same,glycan array binding signal (z-score),[40],-0.294
same,glycan array binding signal (z-score),[41],-0.355
same,glycan array binding signal (z-score),[42],-0.283
same,glycan array binding signal (z-score),[43],-0.365
same,glycan array binding signal (z-score),[44],-0.385
same,glycan array binding signal (z-score),[45],-0.093
same,glycan array binding signal (z-score),[46],-0.264
same,glycan array binding signal (z-score),[47],-0.385
same,glycan array binding signal (z-score),[48],-0.374
same,glycan array binding signal (z-score),[49],-0.379
same,glycan array binding signal (z-score),[50],-0.181
same,glycan array binding signal (z-score),[51],-0.369
same,glycan array binding signal (z-score),[52],-0.399
